In all, about 310,000 compounds went through this assay and about 14,000 (4.5%) showed an effect of 50% or more. The effect is printed as a negative number. This is one part of the list.
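Note: peak tail current of the secondary pulse compared with the same well before compound.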

The target in the experiment is human ether-à-go-go-related gene (hERG) potassium channel (human, UniProt Q12809). Kind of experiment: primary screen, population patch clamp on CHO cells stably expressing hERG.
Sequence of human ether-à-go-go-related gene (hERG) potassium channel (Q12809 whole entry, looked up): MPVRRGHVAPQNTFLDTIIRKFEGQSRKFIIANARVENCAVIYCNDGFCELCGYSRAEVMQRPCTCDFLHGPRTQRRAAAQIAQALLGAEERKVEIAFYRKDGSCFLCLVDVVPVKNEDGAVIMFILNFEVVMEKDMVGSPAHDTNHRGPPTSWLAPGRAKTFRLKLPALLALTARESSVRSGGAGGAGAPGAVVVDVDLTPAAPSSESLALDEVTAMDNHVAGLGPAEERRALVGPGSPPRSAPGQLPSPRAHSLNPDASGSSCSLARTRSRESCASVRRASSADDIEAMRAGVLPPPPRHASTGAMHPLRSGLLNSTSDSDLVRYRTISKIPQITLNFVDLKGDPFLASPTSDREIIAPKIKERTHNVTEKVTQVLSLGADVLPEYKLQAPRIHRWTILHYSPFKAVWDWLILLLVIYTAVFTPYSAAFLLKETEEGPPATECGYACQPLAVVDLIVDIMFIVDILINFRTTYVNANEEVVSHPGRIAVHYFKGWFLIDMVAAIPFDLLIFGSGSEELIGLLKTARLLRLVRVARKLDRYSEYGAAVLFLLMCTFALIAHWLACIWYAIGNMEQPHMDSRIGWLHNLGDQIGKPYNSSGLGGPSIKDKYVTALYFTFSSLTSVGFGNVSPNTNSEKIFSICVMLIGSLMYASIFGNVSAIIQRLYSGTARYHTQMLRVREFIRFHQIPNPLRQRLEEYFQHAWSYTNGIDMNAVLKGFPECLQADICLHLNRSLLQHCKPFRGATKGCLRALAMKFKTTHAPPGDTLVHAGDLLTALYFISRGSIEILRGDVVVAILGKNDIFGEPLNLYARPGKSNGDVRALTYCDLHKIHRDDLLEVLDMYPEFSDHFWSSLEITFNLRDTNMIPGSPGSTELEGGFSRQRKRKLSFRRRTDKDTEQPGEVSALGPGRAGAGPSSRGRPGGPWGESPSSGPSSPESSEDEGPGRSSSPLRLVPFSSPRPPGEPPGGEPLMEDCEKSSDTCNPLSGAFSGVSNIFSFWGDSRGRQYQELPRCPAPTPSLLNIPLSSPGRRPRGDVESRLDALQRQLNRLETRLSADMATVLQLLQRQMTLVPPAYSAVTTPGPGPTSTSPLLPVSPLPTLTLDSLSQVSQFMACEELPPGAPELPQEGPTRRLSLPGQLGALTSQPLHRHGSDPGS
As to `CCC1(C(=O)OC)NC(c2ccccc2OC)C2C(=O)N(C)C(=O)C21` (centres unmarked), the “hERG current change (%, negative = inhibition) at 10uM” value turned out to be 19.1%. Turning to `S=C(NCc1ccco1)N1CCN(Cc2ccc(Cl)cc2Cl)CC1`, the “hERG current change (%, negative = inhibition) at 10uM” value is reported as -36.3%. For `O=C(c1cnsn1)N1CCN(c2ccccc2)CC1` the value was -1.86%. For `Cc1ccccc1NC(=O)NC1CCS(=O)(=O)C1` (centres unmarked) the value was 16.6%; for `O=C1CC(Cc2ccc(Cl)cc2)C(=O)N1c1ccccn1` (centres unmarked), 1.83%.

On to `CCOC(=O)C1CCN(Cc2ccc(OC)c(C)c2OC)CC1`, for which the “hERG current change (%, negative = inhibition) at 10uM” value is given as -25.2%.

With `Cn1c(=O)cc(SCC(=O)Nc2ccccn2)c2ccccc21`, the “hERG current change (%, negative = inhibition) at 10uM” value was -2.45%. Consider `Cc1cc2ccccn2c1C(=O)c1ccccc1F`, for which the “hERG current change (%, negative = inhibition) at 10uM” value is on record as 5.93%.

In the case of `CCOc1ccccc1NC(=O)CC1Nc2ccccc2NC1=O` (centres unmarked), the “hERG current change (%, negative = inhibition) at 10uM” value is reported as -1.88%. On to `Cc1c(NC(=O)C(=O)/C=C(\O)c2ccc(Cl)cc2)c(=O)n(-c2ccccc2)n1C`, for which the “hERG current change (%, negative = inhibition) at 10uM” value was -1.52%. Consider `CCN(CC)P(=O)(NC(=O)c1cccn1C)N(CC)CC`, for which the “hERG current change (%, negative = inhibition) at 10uM” value stood at 4.72%. Regarding `CCOC(=O)c1c(C)n(C)c2ccc(O)c(S(=O)(=O)c3ccccc3)c12`, the “hERG current change (%, negative = inhibition) at 10uM” value is -13.9%. For `O=C(N/N=C/C(Cl)=C/c1ccc([N+](=O)[O-])cc1)C(=O)Nc1ccc(C(=O)O)cc1` the value was 12.2%; for `CC(C)CC(C(=O)OCC(=O)Nc1cccc(Cl)c1)N1C(=O)C2CC=CCC2C1=O` (centres unmarked), 7.75%; for `c1cnc(SCCOc2cccc3ccccc23)nc1`, -8.05%. In the case of `O=C(NCC1CCCO1)c1onc(CSc2ccc(F)cc2)c1C(=O)O` (centres unmarked) it was 1.83%. Consider `Cc1ccc(C(=O)N/C(=C\c2ccc(-c3cccc([N+](=O)[O-])c3)o2)C(=O)NCCCN(C)C)cc1`, for which the “hERG current change (%, negative = inhibition) at 10uM” value was -67.6%. In the case of `Cc1ccc(-c2cnc3cc(C)nn3c2)cc1` it was 7.09%; in that of `CCC(CC)CN1CCN=C1Nc1ccccc1`, -6.05%. Consider `Cc1ccc(S(=O)(=O)Nc2nc3ccccc3nc2NCc2ccc3c(c2)OCO3)cc1C`, for which the “hERG current change (%, negative = inhibition) at 10uM” value is given as 0.353%. On to `CC(=O)N1CCSc2ccc(S(=O)(=O)NCc3ccccc3)cc21`, for which the “hERG current change (%, negative = inhibition) at 10uM” value was -2.74%. With `COc1ccc(S(=O)(=O)N2CCCC2CNC(=O)C(=O)NC2CC2)cc1` (centres unmarked), the “hERG current change (%, negative = inhibition) at 10uM” value was 4.37%. As to `CCOc1ccc(S(=O)(=O)NCCC(=O)NCC2(N3CCCCC3)CCCCC2)cc1`, the “hERG current change (%, negative = inhibition) at 10uM” value is recorded as -33.2%. For `N=C1C(c2nc3ccccc3[nH]2)=C(O)CN1C1CCCCC1` the value was 6.22%.

Regarding `O=C(NC1CCCCC1)n1c(=O)oc2cc(S(=O)(=O)N3CCCCC3)ccc21`, the “hERG current change (%, negative = inhibition) at 10uM” value is listed as 2.1%. Regarding `CC(=O)N1CCN(C(=O)C(Cc2ccccc2)NC(=O)c2ccccc2)CC1` (centres unmarked), the “hERG current change (%, negative = inhibition) at 10uM” value is listed as 1.89%. For `CC(=O)c1cccc(NC(=O)c2ccc3c(Cl)c4c(nc3c2)CCCC4)c1` the value was -9.9%; for `O=C(CCn1cnc2ccccc21)N/N=C/C=C/c1ccccc1`, -41.5%; for `Brc1ccccc1OCCNCc1ccccc1.O=C(O)C(=O)O`, -29.8%. In the case of `Cc1nn(C)c(C(=O)N/N=C/c2ccc(C(F)(F)F)cc2)c1[N+](=O)[O-]` it was -1.99%; in that of `NS(=O)(=O)c1ccc(CCNC(=O)Cc2ccc(S(=O)(=O)N3CCOCC3)s2)cc1`, 8.51%; in that of `CCN(C(=O)/C=C/c1ccccc1)C1CCCCC1`, 11.2%. In the case of `COc1ccc(N(CC(=O)NC(C)(C)C)C(=O)CCC(=O)Nc2nccs2)c(OC)c1` it was 18.7%. For the compound `COC(=O)C1Sc2[nH]c(=O)sc2C(c2ccc(Cl)cc2)C1C(=O)OC` (centres unmarked), the “hERG current change (%, negative = inhibition) at 10uM” value is -67%. Regarding `Cc1cc([N+](=O)[O-])nn1CC(=O)N1N=C(C(F)F)CC1(O)C(F)F` (centres unmarked), the “hERG current change (%, negative = inhibition) at 10uM” value came out at 14.7%.

Regarding `CC12COC3(C(N)=O)CC1CCC32C` (centres unmarked), the “hERG current change (%, negative = inhibition) at 10uM” value is 7.45%.

With `CC(C)c1ccc(C2C3=C(CC(C)(C)CC3=O)NC3=C2C(=O)c2ccccc23)cc1` (centres unmarked), the “hERG current change (%, negative = inhibition) at 10uM” value stood at 5.08%. As to `Cc1ccnc(N2CCC(C(=O)Nc3ccc4c(c3)CCC4)CC2)n1`, the “hERG current change (%, negative = inhibition) at 10uM” value came to 16.1%. `COc1ccc(/C=C/c2ccccc2)cc1[C@H]1[C@H]2C=CC[C@@H](C)[C@@H]2C(=O)N1Cc1ccccc1`: the “hERG current change (%, negative = inhibition) at 10uM” value was found to be 17.3%. Turning to `Cc1ccccc1N1CCN(C2CCCN(C(=O)c3ccsc3)C2)CC1` (centres unmarked), the “hERG current change (%, negative = inhibition) at 10uM” value is listed as -47.3%. For the compound `Cc1ccc(NC(=O)CN(C)C(=O)c2cccc(S(=O)(=O)N3CCc4ccccc43)c2)cc1`, the “hERG current change (%, negative = inhibition) at 10uM” value is -15.6%. In the case of `COc1ccc2[nH]cc(C(=O)CCl)c2c1` it was 8.92%; in that of `COc1ccc(-n2nc3c(N4CCC(C(=O)N5CCCCCC5)CC4)nnc(C)c3c2C)cc1`, -53.7%; in that of `COc1ccc(Cl)cc1NC(=S)NCCO`, 8.54%. In the case of `COCCNC(=O)c1cc(S(=O)(=O)N2CCOCC2)ccc1SCc1cccc(OC)c1OC`, the “hERG current change (%, negative = inhibition) at 10uM” value was -18.6%. In the case of `Cc1ccc(NC2CCCN(C(=O)CCN3CCCCO3)C2)cc1C` (centres unmarked), the “hERG current change (%, negative = inhibition) at 10uM” value was determined as 2.4%. On to `O=C1C2(CCCC13COC(c1ccc(O)cc1)OC3)COC(c1ccc(O)cc1)OC2` (centres unmarked), for which the “hERG current change (%, negative = inhibition) at 10uM” value worked out at 23.3%. As to `CC1(C)Cc2c(sc(NC(=O)c3ccc4c(c3)OCCO4)c2C(N)=O)C(C)(C)N1`, the “hERG current change (%, negative = inhibition) at 10uM” value came out at 2.61%. For `Cc1ccccc1Nc1c(-c2ccc(N3CCOCC3)cc2)nc2cnccn12` the value was -1.1%; for `COc1ccc(N2CCN(CCS(=O)(=O)c3cc(Cl)ccc3Cl)CC2)cc1`, -41.4%; for `CSc1nc(C)cc(/C=C\c2ccccc2)c1C#N`, 5.12%.

Regarding `Cc1cc(NC(=O)C2CCCCC2C(=O)O)ccc1NC(=O)c1ccccc1` (centres unmarked), the “hERG current change (%, negative = inhibition) at 10uM” value is -5.66%. With `Cc1ccc(Cl)cc1N1CCN(C(=O)COc2ccc3c(c2)CCC3)CC1`, the “hERG current change (%, negative = inhibition) at 10uM” value worked out at 17.2%. Turning to `Nc1nc(SCC(=O)N2CCN(S(=O)(=O)c3ccc(Cl)cc3)CC2)n[nH]1`, the “hERG current change (%, negative = inhibition) at 10uM” value was found to be 25.9%. Consider `COc1nc(Oc2ccc(C(=O)OCC(N)=O)cc2)nc(N(C)C)n1`, for which the “hERG current change (%, negative = inhibition) at 10uM” value is 8.74%. Take `O=C(CCCN1C(=O)c2ccccc2C1=O)Nc1ccc(S(=O)(=O)N2CCCCC2)cc1`: the “hERG current change (%, negative = inhibition) at 10uM” value is -28.8%.

The values are drawn from article PMC4336329 (PLoS ONE, 2015).
